In publication PMC4336329 (PLoS ONE, 2015):
In all, about 310,000 compounds went through this assay and about 2,200 (0.71%) showed an effect of 50% or more. Effects have a minus sign here. Some of the results follow.

The molecules below were run against human ether-à-go-go-related gene (hERG) potassium channel (human, UniProt Q12809) (assay: primary screen, population patch clamp on CHO cells stably expressing hERG).
Chain of human ether-à-go-go-related gene (hERG) potassium channel (Q12809 whole entry, looked up): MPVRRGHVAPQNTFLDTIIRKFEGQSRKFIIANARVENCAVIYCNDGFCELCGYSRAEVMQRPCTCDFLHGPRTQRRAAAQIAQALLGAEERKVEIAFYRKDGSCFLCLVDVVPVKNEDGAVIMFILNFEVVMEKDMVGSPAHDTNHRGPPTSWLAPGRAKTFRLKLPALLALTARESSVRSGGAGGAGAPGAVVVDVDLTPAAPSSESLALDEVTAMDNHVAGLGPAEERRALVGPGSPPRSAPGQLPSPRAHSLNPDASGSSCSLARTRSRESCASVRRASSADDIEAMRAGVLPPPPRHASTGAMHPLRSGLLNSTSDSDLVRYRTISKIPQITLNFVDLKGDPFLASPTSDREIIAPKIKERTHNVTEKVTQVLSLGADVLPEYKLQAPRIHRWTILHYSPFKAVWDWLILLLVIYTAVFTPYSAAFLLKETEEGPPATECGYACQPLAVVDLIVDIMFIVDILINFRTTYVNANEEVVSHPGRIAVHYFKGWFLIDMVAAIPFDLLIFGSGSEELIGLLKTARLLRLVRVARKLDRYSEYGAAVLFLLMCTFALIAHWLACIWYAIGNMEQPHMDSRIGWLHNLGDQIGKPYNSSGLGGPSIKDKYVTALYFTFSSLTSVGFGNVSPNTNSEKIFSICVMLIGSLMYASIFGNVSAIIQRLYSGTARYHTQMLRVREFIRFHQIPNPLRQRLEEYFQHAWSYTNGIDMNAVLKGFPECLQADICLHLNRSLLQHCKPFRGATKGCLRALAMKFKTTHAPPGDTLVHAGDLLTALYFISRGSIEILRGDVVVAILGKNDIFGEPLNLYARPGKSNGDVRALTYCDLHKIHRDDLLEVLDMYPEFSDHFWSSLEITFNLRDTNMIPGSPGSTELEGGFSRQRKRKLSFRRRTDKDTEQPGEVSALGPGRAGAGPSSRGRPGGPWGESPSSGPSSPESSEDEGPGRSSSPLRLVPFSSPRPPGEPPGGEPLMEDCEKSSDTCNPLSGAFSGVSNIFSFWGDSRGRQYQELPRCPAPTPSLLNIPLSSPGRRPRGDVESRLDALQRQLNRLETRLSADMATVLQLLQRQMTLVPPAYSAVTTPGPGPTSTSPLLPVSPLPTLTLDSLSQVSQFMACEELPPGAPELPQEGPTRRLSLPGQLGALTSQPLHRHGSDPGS

| SMILES | hERG current change (%, negative = inhibition) at 1uM [%] |
| --- | --- |
| O=C(CCCn1c(=O)[nH]c2cc(Cl)ccc2c1=O)NCCN1CCN(c2ccccc2)CC1 | -22.9 |
| Oc1ccc(Br)cc1C=Nc1ccc2[nH]ncc2c1 | 0.641 |
| N#CC1=C(N)SC(N)=C(C#N)C1c1ccnc2ccccc12 | 20.3 |
| CCOc1ccc(NC(=O)C2C(C(=O)O)C3(Cl)C(Cl)=C(Cl)C2(Cl)C3(Cl)Cl)cc1 (stereo not shown) | 11.1 |
| COc1ccc(/C(N)=N/OC(=O)C2CCC(=O)N2S(=O)(=O)c2ccc(C)cc2)cc1 (stereo not shown) | 4.8 |
| O=C(CN1C(=O)NC2(CCCCC2)C1=O)Nc1ccc2c(c1)CCC2 | 14.5 |
| COc1cccc(-c2nc3n(n2)C(c2cccs2)C(C(=O)Nc2cccnc2)=C(C)N3)c1 (stereo not shown) | -51.2 |
| COc1cc(/C=C(/C#N)C(=O)Nc2ccc(C)cc2)ccc1Oc1nc(Cl)ncc1F | 6.4 |
| C/C(=N\NC(=O)CCc1ccc(S(=O)(=O)N2CCOCC2)cc1)c1ccc(Br)cc1 | 8.22 |
| Cc1cccc(Nc2nnc(SCC(=O)NC3CCCc4ccccc43)s2)c1C (stereo not shown) | 8.32 |
| C=CCSc1nc2ccccc2c(=O)[nH]1 | 4.6 |
| O=C(O)COc1ccccc1/C=N/NC(=O)Cc1ccccc1 | 16.7 |
| Nc1nnc(CC(=O)N/N=C/c2ccc(-c3ccc(Cl)cc3Cl)o2)s1 | 14.6 |
| CCOC(=O)c1ccc(NC2=CC(=O)CC(c3ccco3)C2)cc1 (stereo not shown) | 1.75 |
| CSc1nc2sc3c(c2c2nncn12)CCC3 | 1.97 |
| COc1cc(C=O)ccc1OC(=O)c1ccc(C(C)C)cc1 | 2.89 |
| CCN(C(=O)CSc1nc2ccccc2c(=O)n1Cc1ccc(C)cc1)C1CCS(=O)(=O)C1 (stereo not shown) | -71.4 |
| COc1ccccc1NC(=O)CSc1nnc(CNC(=O)COc2ccc(Cl)cc2)o1 | 7.08 |
| COc1ccccc1CN(C)C(=O)c1cc2ccccc2o1 | 10.8 |
| COc1ccc2c(CN3CCN(S(=O)(=O)c4cccs4)CC3)cc(=O)oc2c1 | -5.7 |
| Nc1c(C(=O)OCC2CCCO2)c2nc3ccccc3nc2n1C1CCCCC1 (stereo not shown) | 16.9 |
| CNC(=O)c1c(NC(=O)CS(=O)(=O)c2ccccc2)sc(C)c1C | 9.48 |

| SMILES | hERG current change (%, negative = inhibition) at 1uM [%] |
| --- | --- |
| CCOc1ccccc1NC(=O)c1cccc(NC(=O)C(C)C)c1 | 8.09 |
| CC(C)[C@@H](C(=O)O)N(Cc1cccc(CN([C@H](C(=O)O)C(C)C)S(C)(=O)=O)c1)S(C)(=O)=O | 12 |
| Cc1ccsc1/C=N/NC(=O)CNC(=O)c1ccc(S(=O)(=O)N(C)C)cc1 | -15 |
| CC(C)(C)NC(=O)Cn1c(SCC(=O)NC2CCCCC2)nc2ccccc21 | 8.55 |
| Cc1cccc(C)c1NC(=O)Cn1nnc(-c2ccc(CN3CCC(C)CC3)cc2)n1 | 11.3 |
| CC(Sc1ccc2c(c1)OCCO2)C(=O)Nc1ccc2c(c1)OCO2 (stereo not shown) | 9.6 |
| CC(C)C(=O)Nc1ccc(C(=O)NNC(=S)NC(=O)c2ccccc2[N+](=O)[O-])cc1 | 4.24 |
| COCCCNC(=O)c1ccccc1N(Cc1ccccc1)S(=O)(=O)c1ccccc1 | 18.3 |
| CCCNC(=O)C(Cc1ccccc1)NC(=O)c1ccccc1 (stereo not shown) | -1.55 |
| CCOC(=O)c1sc2nc(C)nc(SCC(=O)N(CC)C3CCS(=O)(=O)C3)c2c1C (stereo not shown) | 8.52 |
| Cc1ccn2c(C(=O)CSc3ccccc3)c(C)nc2c1 | 11.9 |
| CC(C)(C)c1ccc(N2C(=O)CSC2c2cccnc2)cc1 (stereo not shown) | 12.5 |
| CN(Cc1ccccc1)C(=O)c1nc[nH]c1C(=O)N1CCN(C(=O)OC(C)(C)C)CC1 | 21.8 |
| C[C@H]1CCC/C=C/[C@@H]2C[C@H](O)C[C@H]2[C@H](O)/C=C/C(=O)O1 [56422115] | 14.4 |
| CC(=O)Nc1c(C)ccc(CNC(=O)COc2ccc(F)cc2)c1C | 7.77 |
| CCOC(=O)N1CCC(NC(=O)CN2C(=O)C(CC)Oc3ccc(C)cc32)CC1 (stereo not shown) | 10.2 |
| COc1ccc(C)cc1S(=O)(=O)NCC(c1ccco1)N1CCc2ccccc2C1 (stereo not shown) | -30.2 |
| Cn1cc(CNCc2cn(C)nc2-c2ccc(C3CCCCC3)cc2)cn1 | 13.2 |
| Cc1ccc(NC(=O)c2ccc(C)cc2)cc1 | 10.4 |
| Cc1c(NC(=O)Nc2cc(Cl)ccc2Cl)c(=O)n(-c2ccccc2)n1C | 10.4 |
| CN(C)c1ccc(NC(=O)CSc2nc3ccccc3c(=O)n2CC2CCCO2)cc1 (stereo not shown) | 17.3 |
| CCCC1COC(Cn2cncn2)(c2ccc(Cl)cc2Cl)O1 (stereo not shown) | 10.9 |

| SMILES | hERG current change (%, negative = inhibition) at 1uM [%] |
| --- | --- |
| COC(=O)c1ccc(N=NN2CCOCC2)cc1 | 4.07 |
| CCOC(=O)CNS(=O)(=O)c1cc(-c2nnc(Nc3ccc4c(c3)OCO4)c3ccccc23)ccc1C | 11.4 |
| COC(=O)c1sccc1S(=O)(=O)N1CCCC(N(C)CCc2ccccn2)C1 (stereo not shown) | 1.25 |
| CCn1c(SCc2nc3ccccc3c(=O)[nH]2)nnc1C(C)NC(=O)c1ccccc1 (stereo not shown) | 11.6 |
| Cc1ccc(C(C)C)c(OCc2nnc(SCC(=O)Nc3ncc(C)s3)n2C)c1 | 4.85 |
| Cc1cc(NC(=O)COC(=O)CSCc2ccc(Cl)c(Cl)c2)no1 | -4.43 |
| COc1cc(C(c2c(C)[nH]n(-c3ccccc3)c2=O)c2c(C)[nH]n(-c3ccccc3)c2=O)cc(OC)c1OC | 20.3 |
| O=C(Nc1ccccc1)Nc1ccc2ccccc2c1 | 12.5 |
| O=C(NCCN1CCCCCC1)C1CCN(S(=O)(=O)N2CCOCC2)CC1 | 7.26 |
| Cc1ccc(S(=O)(=O)Nc2cccnc2Oc2ccc(Cl)cc2)cc1 | 9.46 |
| Cc1nn(-c2ccccc2)c(C)c1N | 24.8 |
| CC(C)(C)[C@H]1C=C(C(=O)NC2CC2)O[C@@H](OCc2ccc(CO)cc2)C1 | 9.32 |
| CC(C)CCNc1c(-c2cccs2)nc2ccccn12 | 1.01 |
| O=C(CN1C(=O)C2CCCN2C(=O)c2ccccc21)Nc1ccccc1-n1cccc1 (stereo not shown) | -8.74 |
| CCCS(=O)(=O)N1CCCC(C(=O)NCc2ccc(C)cc2)C1 (stereo not shown) | 10.8 |
| O=C(Cc1ccc(F)cc1)NCCS(=O)(=O)N1CCN(c2cccc(Cl)c2)CC1 | -2.34 |
| CS(=O)(=O)Nc1ccc([N+](=O)[O-])cc1Oc1ccccc1 | 1.22 |
| Cn1c(O)c(N=Nc2ccc(F)cc2)c2ccccc21 | 17.3 |
| NC(=O)c1ccsc1NC(=O)COC(=O)c1ccc(Cl)cc1 | 0.665 |
| CC1CCN(C(=O)c2cc(-c3ccc4c(c3)OCO4)on2)CC1 | 9.04 |
| COc1ccc(N2CCN(C(=O)CNC(=O)c3ccco3)CC2)cc1 | 14.8 |
| O=C(CN1c2cccc3cccc(c23)S1(=O)=O)NCc1ccc2c(c1)OCO2 | 0.394 |

| SMILES | hERG current change (%, negative = inhibition) at 1uM [%] |
| --- | --- |
| O=C(NC(=S)NC1CCS(=O)(=O)C1)c1ccccc1Br (stereo not shown) | 5.64 |
| O=C(N/N=C/c1cc([N+](=O)[O-])ccc1Cl)c1ccc2nc[nH]c2c1 | 2.81 |
| COc1ccc(N2C(=O)C3CCCN3C2c2cccc(OC)c2OC)cc1 (stereo not shown) | 7.83 |
| CC(C)c1ccc(CNC(=O)C2CC(=O)N(C3CCCCC3)C2)cc1 (stereo not shown) | 8.37 |
| CCOC(=O)CC(=O)CSc1nc(N)c(C#N)c(-c2ccc(F)cc2)c1C#N | 6.71 |
| CCOc1ccc(NS(=O)(=O)c2ccc(OCC(=O)NCc3ccncc3)cc2)cc1 | -2.31 |
| Cc1cc(=O)[nH]c(N/N=C/c2c(O)n(-c3ccccc3)c(=O)c3ccccc23)n1 | -0.415 |
| Cc1ccc(-c2nnc(NCc3nc4ccccc4[nH]3)c3ccccc23)cc1S(=O)(=O)N1CCCCC1.Cl | 10.2 |
| Cc1ccccc1C(=O)N/N=C1\SCC(=O)N1Cc1ccco1 | 6.67 |
| COCc1cc(C)nc(N/N=C/c2ccc(-c3ccc(C(=O)O)c(Cl)c3)o2)c1C#N | 15.8 |
| CC(=O)c1ccc(NC(=O)c2ccc(S(=O)(=O)N3CCCC3)cc2)cc1 | 14.1 |
| NC/C(=N\O)c1ccc(Cl)cc1Cl | 12.6 |
| COc1ccc(/C=C/C(=O)Nc2cccc(N3CCOCC3)c2)cc1OC | 6.58 |
| CCOC(=O)c1sc(NC(=O)c2ccccc2OCC)nc1C | 5.6 |
| COc1ccc2[nH]c(=O)c(CN(CC3CCCO3)C(=O)Nc3ccccc3)cc2c1 (stereo not shown) | 6.03 |
| c1ccc(OCc2nnnn2-c2ccccc2)cc1 | 18.9 |
| COc1ccc(-c2cnnn2-c2ccc([N+](=O)[O-])cc2)cc1 | -13.2 |
| CCN(c1ccccc1)S(=O)(=O)c1ccc(Cl)c(NC(=O)CN(C)C2CCN(C)CC2)c1 | 1.47 |
| Cc1cc(C)c(NC(=S)NCCO)c(C)c1 | 4.07 |
